PubChem BioAssay AID602393 (Broad Institute, 2012)
The campaign covered roughly 350,000 compounds. About 7,000 (2%) were called active. Inconclusive results, whose numbers are uncertain, are shown with a selection of clear calls. No stated cut-off is given here; in the data, active means activation above about 40%; inconclusive means no clear call, values can overlap the other calls; inactive means below that.

assay: raisers of Bmi1 knock-in reporter signal – mouse ES cells, Bmi1 luciferase knock-in, single point, esBAF inhibitor project, primary screen (AID 602393); conditions: 24 h, at 12.5 µM, hits give high values, 100% = twice the neutral-well signal;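 further: 0% = median of the plate's neutral control wells and 100% = double that signal; a rise in the Bmi1 reporter signal indicates esBAF inhibition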

| SMILES | reporter increase |
| --- | --- |
| COCC(=O)n1nc(-c2ccccc2)nc1NCc1ccc(F)cc1 | inconclusive: 43.9% |
| CO[C@@H]1CN(C)C(=O)c2cc(NC(=O)Nc3cc(F)ccc3F)ccc2OC[C@H](C)NC[C@H]1C | inactive: -5.97% |
| O=C(O)c1ccc(N/N=C/C(Br)=C/c2ccccc2)cc1 | active: 74.3% |
| O=C(Nc1sc2c(c1C(=O)O)CCCC2)c1ccc(Cl)cc1 | inconclusive: 37% |
| CC1CCN(c2ccc3c(c2)S(=O)(=O)c2cc(C(=O)O)ccc2C3=O)CC1 | inconclusive: 41.8% |
| Cc1c(C(=O)N(C)C(C)c2ccccn2)oc2c(F)cccc12 (centres undefined) | inconclusive: 46.3% |
| Cc1csc(=O)n1CC(=O)Nc1ccc(C(C)C)cc1 | inconclusive: 51.7% |
| CN(C)CCNC(=O)c1cccc(-c2cnc3c(NC=O)cc(-c4cc(F)c(F)c(F)c4)cn23)c1 | inactive: 3.09% |
| CCCCOC(=O)Nc1ccc(C(N)=O)cc1 | inconclusive: 44% |
| CCCCC1(C)Nc2ccccc2-c2nc3ccccc3n21 (centres undefined) | inconclusive: 55.1% |
| COc1cccc(/C=N/Nc2ccc(Cl)nn2)c1 | inconclusive: 38.3% |
| COc1ccc(CN(C)C[C@H]2OCCCC[C@@H](C)Oc3ccc(NC(=O)NC4CCCCC4)cc3C(=O)N([C@H](C)CO)C[C@H]2C)cc1 | inactive: -2.78% |
| C[C@H](CO)N1C[C@H](C)[C@@H](CN(C)S(=O)(=O)c2cccs2)OCCCC[C@H](C)Oc2ccc(NC(=O)Nc3ccc(F)cc3)cc2C1=O | inactive: 3.26% |
| Nc1nc(Cl)cc(Sc2ccc3ccccc3c2)n1 | inconclusive: 40.5% |
| CCC1CCCCN1S(=O)(=O)c1ccc(NC(=O)c2nc(S(C)(=O)=O)ncc2Cl)cc1 (centres undefined) | inactive: -88.5% |
| CC(C)(O)C#Cc1ccc(C(=O)Nc2ccc3c(c2)OCO3)s1 | active: 62.9% |
| C[C@@H]1CN([C@H](C)CO)C(=O)c2cc(NS(=O)(=O)c3ccccc3)ccc2O[C@@H]1CN(C)C(=O)Nc1ccc(F)cc1 | inactive: 1.46% |
| CC(Sc1ccccn1)C(=O)Nc1ccccc1 (centres undefined) | inconclusive: 44% |
| C=CCN1N=C(/C=C/c2ccc(C)cc2)CCC1=O | active: 55.8% |
| O=C(CC(=O)c1c(F)cccc1Cl)c1ccccc1O | inconclusive: 40.4% |
| Cc1c(C(=O)N2CCOCC2)sc2nc(-c3ccccc3)cn12 | inconclusive: 40.4% |
| CCOc1ccc(-c2nnc(-c3ccncc3)o2)cc1 | inactive: 6.81% |
| Cc1ccc(-c2nnn(CC(=O)N(Cc3cccs3)C(C(=O)NC3CCCC3)c3ccncc3)n2)cc1 (centres undefined) | inconclusive: 42.2% |
| C#CCN1C(=O)S/C(=C/C=C/c2ccc(N(C)C)cc2)C1=O | active: 79.3% |

| SMILES | reporter increase |
| --- | --- |
| COc1cc(C(=O)OCC(=O)Nc2cc(C)on2)ccc1OCc1ccccc1Cl | inconclusive: 42.6% |
| O=C(Nc1ccccn1)c1cccs1 | inconclusive: 40.2% |
| Cc1ccc(/C=N/Nc2nc(C(C)(C)C)cs2)o1 | inconclusive: 59.4% |
| COc1ccc(C(=O)NCCCOC(C)C)cc1OC1CCN(C(C)=O)CC1 | inconclusive: 40.5% |
| COc1ccc2c(c1)CSC(c1ccccc1)C2=O (centres undefined) | inconclusive: 42.9% |
| CC(C)Oc1ccc(-c2cc(C(=O)NCCN3CCOCC3)c3ccccc3n2)cc1 | inconclusive: 44.4% |
| CC(=O)c1cccc(NC(=O)N2CCc3ccccc3C2)c1 | inconclusive: 42% |
| CC(=O)NC1CCC(OC(=O)Nc2ccccc2)CC1 (centres undefined) | active: 53.1% |
| COc1ccc(NC(=O)Nc2ccccc2F)cc1Cl | inconclusive: 52.3% |
| Cc1ccccc1Cn1nnc(C(=O)Nc2ccc3c(c2)OCCO3)c1N | active: 67.6% |
| CCN(CC)S(=O)(=O)c1ccc(NC(=O)c2ccccn2)cc1 | active: 47.6% |
| Cc1ccc(C(=O)NCCCc2ccccc2)c(Cl)c1 | active: 42.4% |
| O=C(C=Cc1ccccc1)c1c[nH]c2ccccc2c1=O | inconclusive: 40.8% |
| O=C(Cc1ccccc1)N/N=C/c1ccc(Cl)cc1Cl | inactive: 3% |
| O=C(Nc1ccc(Nc2ccccc2)cc1)c1cccc(F)c1 | inconclusive: 47.3% |
| CNC[C@@H]1OCCCC[C@H](C)Oc2ccc(NS(C)(=O)=O)cc2C(=O)N([C@@H](C)CO)C[C@H]1C | inactive: -6.75% |
| CCOC(=O)C1(Cc2cccc(OC)c2)CCCN(C(=O)CCSC)C1 (centres undefined) | active: 51.6% |
| CCC(C)(NC(=O)c1ccc(=O)[nH]c1)C(=O)NC1CCCC1 (centres undefined) | inactive: 7.01% |
| O=C(Nc1ccc2c(c1)OCO2)c1cccs1 | inconclusive: 40.7% |
| CN(C)C(=O)C[C@H]1CC[C@H](NC(=O)C2CC2)[C@@H](CO)O1 | inactive: -10.5% |
| Cc1noc(C)c1NC(=O)N(C)C[C@@H]1Oc2ncc(C#CC3CC3)cc2C(=O)N([C@H](C)CO)C[C@H]1C | inactive: 35.5% |
| CCS(=O)(=O)NCCc1csc(-c2ccccc2)n1 | inconclusive: 45.9% |
| Nc1nc2ccccc2cc1-c1cccs1 | inconclusive: 52.9% |
| NNC(=O)c1sc(-c2ccc(Cl)cc2)cc1N | inconclusive: 44.6% |

| SMILES | reporter increase |
| --- | --- |
| OC1CCC(Nc2ccn3nc(-c4cccc(Cl)c4)cc3n2)CC1 (centres undefined) | inconclusive: 43.7% |
| CC(C)c1ccc2nc(NC(=O)C3CC3)sc2c1 | active: 56.7% |
| O=C(NCCc1ccco1)c1ccc(OCc2cn3ccccc3n2)cc1 | inconclusive: 40.2% |
| CSC1=NNC(c2ccc(C(C)(C)C)cc2)=NN1 | inconclusive: 41.7% |
| NC1=NC[C@@H](Cc2ccc(O)cc2)N1CCc1cc(C(F)(F)F)cc(C(F)(F)F)c1 | inactive: -5.73% |
| CCN(CC)c1ccc(CNc2ccc(Br)cn2)cc1 | inconclusive: 40.7% |
| CO[C@@H]1CN(C)C(=O)c2cc(NC(C)=O)ccc2OC[C@@H](C)N(Cc2cccnc2)C[C@@H]1C | inactive: -1.99% |
| O=C(c1ccco1)N1CCN(c2ccc(N3CCCCC3)nn2)CC1 | inconclusive: 45.4% |
| CSc1nnc(NC(=O)C2CCCCC2)s1 | active: 45.3% |
| CC(=O)Nc1nnc(COc2ccc(Cl)cc2)s1 | inconclusive: 40.1% |
| N/C(=N\OC(=O)Cc1cccs1)c1ccc(Br)cc1 | inactive: 35.6% |
| O=C(Nc1ccc(F)cc1)N1CCCCCC1 | inactive: 8.71% |
| O=C(Nc1nnc(Cc2ccccc2)s1)c1ccccc1 | active: 70.2% |
| CC(O)(C#CCN1CCCC1)c1ccccc1 (centres undefined) | inactive: -1.25% |
| Cc1nc(N)sc1N=Nc1ccccc1C(F)(F)F | inconclusive: 47.6% |
| Nc1nc(-c2ccc(Br)cc2)cs1 | inconclusive: 40.3% |
| O=C(Nc1n[nH]c(C2CCCCC2)n1)C1CCCCC1 | inconclusive: 41.5% |
| CCOc1ccc(-c2cn(-c3ccc(OC)cc3)c(SC)n2)cc1 | active: 64.6% |
| COCCNC(=O)CSc1nc2ccc(N3CCOCC3)cc2c(=O)n1CCc1ccccc1 | inactive: 18% |
| O=C(O)c1cc(N/N=C/c2ccc(-c3ccc(F)cc3)o2)ccc1Cl | inconclusive: 40.1% |
| CCOC(=O)c1sc(NC(=S)NC(=O)CC(C)C)cc1C | inconclusive: 40.6% |
| C/C(=N\NC(=O)c1c[nH]c2ccccc12)c1ccc(C)o1 | inactive: 7.29% |
| COc1cccc2sc3cc(NCc4ccc(C)o4)ccc3c(=O)c12 | inconclusive: 42.6% |
| Fc1cccc(-c2nnn3c2nc(Cl)c2ccccc23)c1 | inconclusive: 30.8% |

| SMILES | reporter increase |
| --- | --- |
| O=C(N[C@@H]1CC[C@H](CCNC(=O)C2CC2)O[C@@H]1CO)c1ccccn1 | inactive: -3.13% |
| COc1cc(C)ccc1OCc1cc(C(=O)N2CCCCCCC2)no1 | active: 55.4% |
| Cc1ccc(OCC(=O)N/N=C\c2cccn2C)c([N+](=O)[O-])c1 | inconclusive: 41.3% |
| COc1cc(-c2nnc3sc(C4CCCCC4)nn23)cc(OC)c1OC | inactive: -16.8% |
| COc1ccc(-c2ccc(SCC(=O)NC3CCCCC3)nn2)cc1OC | inconclusive: 41.2% |
| Cc1cccn2c(=O)c3cc(C(=O)N4CC(C)CC(C)C4)sc3nc12 (centres undefined) | inactive: 10.4% |
| CCOc1ccc(NC(=O)c2ccccc2CO)cc1 | inconclusive: 40.5% |
| O=C(Nc1nc2c(F)cc(F)cc2s1)C1CCN(C(=O)c2ccc(F)cc2)CC1 | inconclusive: 52% |
| Cc1ccc(S(=O)(=O)N(C)C[C@@H]2Oc3c(NC(=O)Nc4ccc5c(c4)OCO5)cccc3C(=O)N([C@@H](C)CO)C[C@@H]2C)cc1 | inactive: 12.4% |
| CC(O)CC(=O)O (centres undefined) | inactive: -1.14% |
| CN(C(=O)c1cc(-c2ccc3c(c2)OCO3)on1)c1ccccc1 | active: 67.5% |
| Cc1ccc(Cc2c(-c3ccc(Cl)cc3)nc3ccc(Br)cn23)cc1 | inconclusive: 42.3% |
| CCN(CC)C(=O)COc1ccc(-c2ccccc2)cc1 | active: 50.1% |
| O=C(Nc1nc2c(Cl)cccc2s1)c1ccc(Br)o1 | inactive: 39.3% |
| CN(CC(=O)Nc1ccc2c(c1)OCO2)S(=O)(=O)c1cccs1 | inconclusive: 45.1% |
| COc1ccc(C2=NN(S(C)(=O)=O)C(c3cccs3)C2)cc1OC (centres undefined) | inconclusive: 35.6% |
| C(=C\c1ccccc1)/CSc1nc2ncccc2[nH]1 | inconclusive: 41.6% |
| Cc1occc1C(=O)Nc1nnc(C2CCCCC2)s1 | inconclusive: 43.2% |
| Cc1noc(C)c1C(c1ccccc1)S(=O)(=O)c1ccccc1 (centres undefined) | inactive: -8.91% |
| CC(C)COc1ccc(-c2nnn(CC(=O)N3CCCC3)n2)cc1 | inconclusive: 41.3% |
| CCOC(=O)c1c(C)oc2cc(Sc3ccccc3)c(O)c(O)c12 | inconclusive: 40.7% |
| C[C@H]1CN([C@@H](C)CO)S(=O)(=O)c2ccc(C#Cc3ccncc3)cc2O[C@H]1CN(C)C(=O)C1CCOCC1 | inactive: -0.163% |
